Screen size: about 120,000 compounds; about 5,300 (4.4%) were called active. Inconclusive means that the source gave no clear call. Such entries were picked first, then a sample of the others. Calls follow the shape of the dose curve; as a rule, active = well fitted inhibition curve with a large enough effect; inconclusive = small, poorly fitted or top-dose-only effect; inactive = no such curve, though single readings can be large or run the other way. A potency beside an inconclusive call is a rough fit, not a confirmed value.
experiment: qHTS Primary assay for Inhibitors of Plasmodium falciparum Dd2 growth in vitro; also: nearly all actives have a fitted effect of over 65% in size; conditions: P. falciparum Dd2 growth, SYBR Green, 72 h; series mostly up to 28.9 µM
Outline: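 Infected erythrocytes (Dd2, 0.3% parasitemia, 2.5% hematocrit final) are added to compound in RPMI-1640/Albumax II medium, grown 72 h at 37C in low oxygen, then lysed with saponin/Triton-X containing SYBR Green and read by fluorescence.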
Potency is read from the fitted curve at half-maximal effect; tags tell the direction and shape of the fitted curve.

Compound	Potency
Cc1cc(N2CCN(C)CC2)nc2ccc(NC(=O)c3ccc(C(C)(C)C)cc3)cc12	active: 6.31 µM
CN(Cc1ccccc1)c1nnc(NC(=O)Nc2cccc(Br)c2)s1	inconclusive: 7.94 µM [inhibitor, partial curve, poor fit]
O=C(Nc1cccc(C(F)(F)F)c1)N[C@H]1CO[C@H]2[C@@H]1OC[C@@H]2n1nnnc1Oc1ccc(-n2ccnc2)cc1	inconclusive: 11.2 µM [inhibitor, single point]
CCOC(=O)c1cc2c(=O)n3ccccc3nc2n(CC(C)C)c1=NC(=O)COc1ccc(Cl)cc1	inconclusive: 0.01 µM [inhibitor, full curve, poor fit]
CC[C@H]1CN(C(=O)C(C)(C)C)CC[C@H]1CC(=O)N1CCC(C(=O)OC)CC1	inactive
CC(C)(C)C(=O)N1CCC2(CC1)Cc1ccccc1NC2=O	inactive
CCc1noc(-c2cccn3c(CNC(=O)c4ccc5ccccc5n4)nnc23)n1	inconclusive: 3.98 µM [inhibitor, partial curve, poor fit]
COc1ccc(OC)c(-c2ccc3ncn(-c4ccc(F)cc4F)c(=O)c3n2)c1	inconclusive: 11.2 µM [inhibitor, partial curve, poor fit]
CCOc1ccccc1NC(=O)Cn1ccn2nc(-c3ccccc3)c(CO)c2c1=O	inconclusive: 0.0708 µM [inhibitor, full curve, poor fit]
CNc1nc(C(=O)NCc2ccc3[nH]c(-c4ccc(F)cc4)c(C)c3c2)cs1	inconclusive: 8.91 µM [inhibitor, partial curve, poor fit]
COc1cccc(C2=CC(c3ccccc3F)n3ncc(C(=O)Nc4ccc(C)cc4)c3N2)c1 (stereo unspecified)	inconclusive: 12.6 µM [inhibitor, single point]
O=C(CC1CCCN(c2cnn(CC3CC3)c(=O)c2)C1)Nc1ccccc1F (stereo unspecified)	inconclusive: 17.8 µM [inhibitor, single point]
Cc1ccc(C)c(C(=O)N2CCC(OC3CCN(C)CC3)CC2)c1	inconclusive: 17.8 µM [inhibitor, single point]
COCCCN(CCC(=O)NCCOC)C(=O)c1cc(C)oc1C	inactive
Cc1ccc(CCNC(=O)c2sc3ncccc3c2-n2c(C)ccc2C)cc1	inconclusive: 12.6 µM [inhibitor, single point]
CC1CCCCN1c1c(S(=O)(=O)c2ccc(Cl)cc2)cnc2ccccc12 (stereo unspecified)	inconclusive: 12.6 µM [inhibitor, single point]
CCN(CC)C(=O)c1sc2c(c1C)c(=O)n(-c1ccccc1)c(=O)n2Cc1c(C)cc(C)cc1C	active: 10 µM
COc1ccc(-c2cn3nc(N4CCC(C(=O)Nc5ccccc5OC)CC4)sc3n2)cc1	inconclusive: 3.55 µM [inhibitor, single point]
CC(C)CCN(C)C1CCc2ccccc21 (stereo unspecified)	inactive
c1ccc(-c2nc(C3CC3)no2)c(OC2CN(Cc3ccncc3)C2)c1	inconclusive: 7.08 µM [inhibitor, partial curve, poor fit]
CCOc1ccc(NC(=O)CC2C(=O)N(c3ccccc3)C(=O)N2CCc2cccs2)cc1 (stereo unspecified)	inconclusive: 20 µM [inhibitor, partial curve, poor fit]
O=C(Cc1cccc(F)c1)NCC(=O)N1CCCCCCNC(=O)CC1c1ccccc1 (stereo unspecified)	inconclusive: 7.94 µM [inhibitor, partial curve]

Compound	Potency
Oc1ccccc1-c1cc(-c2cccnc2)c2cncn2c1	active: 0.355 µM
COc1ccc(F)cc1C(=O)N1CC[C@@H]2[C@@H](CCC(=O)N2CCN)C1	inactive
Cc1ccccc1NC(=O)c1c(NC(=O)c2ccccc2)sc2c1CCC2	inactive
Cn1cccc1CN1CC(N2CCc3ccccc32)C1	inconclusive: 8.91 µM [inhibitor, partial curve]
CCc1ccc(-n2c(=O)c3ccccc3n(CC(=O)NCCc3ccc(OC)c(OC)c3)c2=O)cc1	inconclusive: 17.8 µM [inhibitor, single point]
Cc1noc(C)c1-c1cnc2[nH]cc(CC(=O)N3CCN(C)CC3)c2c1	inactive
CCC(C)NC(=O)C(NC(=O)c1ccc2c(c1)OCO2)C1CCN(C(=O)c2ccccc2F)CC1 (stereo unspecified)	inconclusive: 3.98 µM [inhibitor, single point]
CC(=O)N1C[C@@H](C(=O)NCCCc2c(C)noc2C)[C@H](c2nc(C)no2)C1	inactive
CCC1COCCN1Cc1cn(-c2ccccc2)nc1-c1ccc(OC)cc1F (stereo unspecified)	active: 12.6 µM
COCCOc1ccc2c(n1)CCN(C(=O)COc1ccc(F)cc1)C2	inconclusive: 3.98 µM [inhibitor, single point]
Cc1ccc(N(CC(=O)N2CCN(c3cccc(Cl)c3)CC2)S(=O)(=O)c2c(C)noc2C)cc1	inconclusive: 17.8 µM [inhibitor, single point]
CCn1cc2nc(SCc3cccc(C(F)(F)F)c3)n(Cc3ccc(Cl)cc3)c(=O)c2n1	inconclusive: 10 µM [inhibitor, single point]
Cc1ccc(C)c(N2CCN(C(=O)c3cnn(C(C)(C)C)c3C3CCN(C(=O)OC(C)(C)C)CC3)CC2)c1	active: 8.91 µM
O=C(CSc1nc(-c2ccc(F)cc2)[nH]c1-c1ccccc1)Nc1ccccc1	inconclusive: 12.6 µM [inhibitor, single point]
CCc1ccccc1NC(=O)N1CCCC(Cn2c(C)nc3cccnc32)C1 (stereo unspecified)	inconclusive: 8.91 µM [inhibitor, single point]
CC1(c2ccccc2)N(Cc2ccccc2F)C(=O)OC12CCN(Cc1cccc(O)c1)CC2 (stereo unspecified)	inconclusive: 0.282 µM [inhibitor, full curve]
Cc1ncc2n1C(=O)N(C1CCN(C(=O)c3ccc(F)cc3)CC1)C2	inactive
Clc1ccc(OCc2nc3ccccc3n2Cc2ccccc2)c(Cl)c1	inconclusive: 17.8 µM [inhibitor, single point]
O=C1Nc2ccccc2O[C@H]2C[C@@H]1N(Cc1ccccn1)C2	inactive
CCN(CC)C(=O)C(C)[C@@H]1CC[C@@]2(C)Cc3sc(NC(=O)C4CC4)nc3[C@@H](C)[C@@H]2[C@H]1O (stereo partly specified)	inactive
Oc1ccccc1CN1CCOC[C@H]1c1ncc(-c2ccc(C(F)(F)F)cc2)[nH]1	active: 1.26 µM
CCc1cccc(CC)c1-n1nnc2c(sc3nc(C)cc(C)c32)c1=O	inconclusive: 20 µM [inhibitor, single point]

Compound	Potency
O=c1c2nc(Nc3ccc(C(F)(F)F)cc3)ccc2ncn1Cc1ccccn1	inconclusive: 15.8 µM [inhibitor, partial curve, poor fit]
Cc1ccc([C@H]2C[C@@H](O)[C@@H](O)[C@@H]2NC2CCOCC2)cc1	inconclusive: 39.8 µM [inhibitor, single point]
COc1cc(NC(=O)N2CCC3(CC2)Nc2cc(F)ccc2-n2cccc23)cc(OC)c1OC	inconclusive: 17.8 µM [inhibitor, single point]
COc1cccc(CCC(=O)NCCC2CCN(C(=O)Nc3ccc(C)c(F)c3)CC2)c1	inactive
CN(C)C[C@@H]1CN(Cc2cccnc2)C[C@H]1NC(=O)c1ccccc1Cl	inactive
CN(Cc1cnn(C)c1)C(=O)c1csc2nc(-c3cccc(C(F)(F)F)c3)cn12	inconclusive: 20 µM [inhibitor, single point]
Cc1ccc(C(=O)N[C@H]2CO[C@H]3[C@@H]2OC[C@@H]3Nc2nccc(-c3ccc(-c4ccccc4)cc3)n2)cc1	inconclusive: 7.08 µM [inhibitor, partial curve]
O=C1NCc2ccccc2CC12CCCCN2Cc1ccsc1 (stereo unspecified)	inconclusive: 22.4 µM [inhibitor, partial curve, poor fit]
COc1ccc(Cl)cc1C(=O)NC1CCN(c2cc(-c3cccs3)[nH]n2)CC1	inactive
CS(=O)(=O)N1CCN(C(=O)C2CC(=O)N(c3n[nH]c4cccc(F)c34)C2)CC1 (stereo unspecified)	inactive
COc1cc(CNc2nc(-c3c(C)noc3C)cc3cc(CN(C)C)oc23)cc(OC)c1	inconclusive: 0.447 µM [inhibitor, partial curve, poor fit]
COc1ccc(CC(=O)N2CCCC(c3ccc(C(=O)O)cc3)C2)c(OC)c1 (stereo unspecified)	inactive
Cc1cccc(-c2nc(CSCC(=O)NCCc3ccc(Cl)cc3)c(C)o2)c1	inconclusive: 17.8 µM [inhibitor, single point]
CC(C)NC(=O)c1nc(-c2cccc(C(F)(F)F)c2)c2cnccn12	active: 1.78 µM
COc1cc(/C=C/c2nc(C#N)c(NCCc3ccccc3)o2)cc(OC)c1OC	inconclusive: 11.2 µM [inhibitor, partial curve]
CCC(=O)NCC1Cn2cccc2C(=O)N1Cc1ccccc1 (stereo unspecified)	inactive
Cc1nc(-c2ccccc2)n(CC(=O)Nc2cc(C(F)(F)F)ccc2Cl)c(=O)c1CCO	inconclusive: 17.8 µM [inhibitor, single point]
CN1CCC(C(=O)N[C@@H]2CN(c3ncccn3)C[C@H]2CO)CC1	inactive
COc1cc(NC(=O)c2nc3ccccc3nc2N2CCCCC2)cc(OC)c1OC	inconclusive: 20 µM [inhibitor, single point]
Cc1cccc(NC(=O)N2C[C@@H](F)C[C@H]2C(=O)N2CCc3ccccc3C2)c1C	active: 7.94 µM
Cc1noc(C)c1CCC(=O)N[C@@H]1CCOC[C@H]1Oc1ccccn1	inactive
CC(C)CN(C1CCOCC1)C1CN(Cc2cncs2)C1	inconclusive: 17.8 µM [inhibitor, single point]

— PubChem BioAssay AID1347417 (National Center for Advancing Translational Sciences (NCATS), 2020)
